# Reference: PubChem BioAssay AID652104 (National Center for Advancing Translational Sciences (NCATS), 2013)
# Among all 410,000 compounds or so, about 7,200 (1.8%) were called active. The inconclusive results got no clear call from the source; some entries with a clear call stand among them for comparison. Calls come from the whole dose curve; as a rule, active = well fitted activation curve with a large enough effect; inconclusive = small, poorly fitted or top-dose-only effect, or another doubt; inactive = no such curve, though single readings can be large or run the other way. Potencies of inconclusive entries are left out as doubtful fits.
# Assay: qHTS of TDP-43 Inhibitors; note: nearly all actives have a fitted effect of over 50% in size; for growth rescue (activation): % of control where 0% means no effect
# Conditions: TDP-43 expressing yeast growth rescue, BacTiter-Glo, 24 h; growth rescue (activation): at 46.1 µM (top of the series) unless noted
# In short: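 Cell-based yeast growth screen: TDP-43 expression induced in galactose, inoculum OD600=0.02 after raffinose pregrowth to mid-log. Read-out BacTiter-Glo luminescence at 24 hr, 30 deg C; inhibition of toxicity seen as signal increase.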
# Potency is the fitted concentration of half-maximal effect; tags give direction and shape of the fitted curve.
Compound,Potency,growth rescue (activation)
COCCCNC(=O)c1ccc(NC(=O)c2nsc3ccccc23)cc1,"inconclusive [activator, partial curve]",
COc1ccccc1CNC(=O)C1CCC(CNS(=O)(=O)c2ccc3c(c2)CCCC(=O)N3)CC1 (stereo not drawn),,inactive: 14%
O=c1cnnc(N/N=C/c2ccccn2)[nH]1,"inconclusive [activator, single point]",
COc1ccc(C2=NN(C(=O)CSc3ncccn3)C(c3ccc(C)cc3)C2)cc1 (stereo not drawn),,inconclusive: 40.2% [activator]
O=C1NC2(CCCCCC2)C(=O)N1Cc1ccc([N+](=O)[O-])cc1,"inconclusive [activator, partial curve, poor fit]",
Cc1ccccc1-c1noc(CCC(=O)NCc2ccco2)n1,"inconclusive [activator, partial curve]",
COc1ccccc1NC(=O)CSc1nnc(-c2ccoc2C)o1,"inconclusive [activator, partial curve]",
CCc1ccccc1NC(=O)CSc1nnc2ccc3ccccc3n12,"inconclusive [activator, partial curve]",
O=C1CC(/C=C/c2ccccc2)=Nc2ccccc2N1,"inconclusive [activator, partial curve]",
O=C(CNc1ccccc1)N/N=C/c1ccc([N+](=O)[O-])o1,"inconclusive [activator, partial curve]",
Cc1nn2c(=O)cc(COC(=O)c3c(F)cccc3Cl)nc2s1,active: 35.5 µM,
CC(C)(CO)NCc1cccc(OCc2ccc(Cl)cc2)c1,"inconclusive [activator, partial curve, poor fit]",
CCn1c(=O)cc(OCC(=O)Nc2cc(Cl)c(OC)cc2OC)c2ccccc21,,inactive: 8.79%
CC(=O)c1ccc(OCc2cc(C(=O)N(C)CCOc3ccc(C)cc3)no2)cc1,"inconclusive [activator, partial curve]",
CCCOC(=O)c1c(N)sc(C(=O)OCC)c1C,active: 7.94 µM,
c1ccc(Cc2nnc(-c3ccccc3)o2)cc1,"inconclusive [activator, single point]",
Clc1ccc(-c2nc(N3CCCCC3)nc3ccccc23)cc1,,inactive: -4.29%
COc1cc(/C=C2\C(=N)N3N=C(S(C)(=O)=O)SC3=NC2=O)ccc1OS(=O)(=O)c1ccc(C)cc1,"inconclusive [activator, single point]",
CC(=O)c1cccc(NC(=S)NC(=O)c2cccc(C)c2)c1,"inconclusive [activator, partial curve]",
COc1ccc(OC)c(CCNC(=O)C2CCN(c3nnc(-n4cccc4)s3)CC2)c1,"inconclusive [activator, partial curve]",
CCOc1cccc(=O)c2c(C)n(CC3CCCO3)c(C)c12 (stereo not drawn),"inconclusive [activator, full curve]",
O=C(COc1ccccc1[N+](=O)[O-])N(Cc1ccco1)c1ccccn1,,inactive: 20.7%
COc1ccc(/C=C2/C(=O)ON=C2c2ccccc2)cc1OC,"inconclusive [activator, partial curve]",

Compound,Potency,growth rescue (activation)
CC(C)CC(=O)Nc1c(C(=O)N2CCN(c3ccccc3)CC2)oc2ccccc12,"inconclusive [activator, partial curve]",
COc1cc(S(=O)(=O)N2CCN(Cc3ccc4c(c3)OCO4)CC2)c(C)cc1C,,inactive: 7.06%
Cc1ccc(-c2csc(NCCc3nc4cc(Cl)c(Cl)cc4n3CCOCCO)n2)cc1,"inconclusive [activator, single point]",
COc1ccccc1C(=O)Nc1ccc2c(c1)CCCN2C(=O)c1cccs1,"inconclusive [activator, single point]",
Cc1ccc(SCC(=O)N2CCCC2)cc1,"inconclusive [activator, full curve]",
N#Cc1ccccc1OCC(=O)Nc1ccc2c(c1)OCO2,"inconclusive [activator, partial curve]",
Cc1ccc(C)c(CN2C(=O)c3ccccc3S(=O)(=O)c3ccc(C(=O)N4CCCCC4)cc32)c1,"inconclusive [activator, full curve, poor fit]",
Cc1ccc(S(=O)(=O)C(C#N)c2nc3ccccc3nc2N2CCCC2)cc1 (stereo not drawn),"inconclusive [activator, single point]",
CCCC(=O)N1CCN(c2nc3ccc(Cl)cc3s2)CC1,"inconclusive [activator, partial curve]",
COc1ccc(C(=O)OCCc2ccc(O)cc2)cc1,"inconclusive [activator, single point]",
CCCCOC(=O)c1ccc(NC(=O)c2nn(C)cc2Br)cc1,"inconclusive [activator, single point]",
COc1ccccc1C(=O)NC(=O)COC(=O)CCOc1ccccc1C,"inconclusive [activator, partial curve]",
CC(C)(C)C1CCC(C(=O)Nc2ccc(N3CCOCC3)cc2N2CCOCC2)CC1 (stereo not drawn),"inconclusive [activator, partial curve]",
NC(=S)C(c1ccccc1)c1ncc(C(F)(F)F)cc1Cl (stereo not drawn),"inconclusive [activator, partial curve]",
Cn1c(=O)c2cc(S(=O)(=O)NC(C(=O)NC3CCCCC3)c3ccccc3)ccc2n(C)c1=O (stereo not drawn),"inconclusive [activator, full curve, poor fit]",
COc1cccc(/C=N/n2c(N)c(S(=O)(=O)c3cccs3)c3nc4ccccc4nc32)c1,,inactive: 11.2%
C=CCN=c1scc(-c2ccc3c(c2)NC(=O)CO3)n1/N=C(\C)c1ccccn1,active: 12.6 µM,
Cc1cc(C)nc(-n2ncc3c2CC(c2ccccc2)CC3=O)n1 (stereo not drawn),"inconclusive [activator, full curve]",
O=C(Nc1ccccc1Oc1ccccc1)c1cnccn1,,inactive: 16%
Cc1ccc(-c2ccc(NC(=O)C3C4C=CC(C4)C3C(=O)O)cc2)o1 (stereo not drawn),,inactive: 17%
COC(=O)c1cc(C)[nH]c2c(C)cc3nc4ccccc4c3c12,"inconclusive [activator, single point]",
O=C1NC(Cc2ccc(O)cc2)c2nc3cc(F)ccc3c(=O)n2-c2cc3ccccc3cc21 (stereo not drawn),"inconclusive [activator, partial curve]",
CCc1ccccc1NC(=O)C1=C(C)C(=O)OC12CCCCCC2,"inconclusive [activator, full curve, poor fit]",

Compound,Potency,growth rescue (activation)
COc1cc(-c2coc3c(C(=O)NCc4cccc(Cl)c4)cccc23)ccc1O,"inconclusive [activator, full curve]",
CC1CCN(c2ccc(/C=N\Nc3nncn3N)cc2[N+](=O)[O-])CC1,"inconclusive [activator, single point]",
Cc1ccc(-c2cc(NC(=O)c3ccccc3)on2)cc1,,inactive: -0.572%
COCC1CCN(Cc2c(C(=O)N3CCc4ccccc4C3)nc3ccc(Cl)cn23)C1 (stereo not drawn),,inactive: 7.04%
Cc1cccc(NC(=O)C2CC(=O)N/C(=N/N=C/c3ccco3)S2)c1 (stereo not drawn),"inconclusive [activator, partial curve]",
COc1ccc(OC)c(NC(=O)c2cccc(NC(=O)c3ccccc3)c2)c1,"inconclusive [activator, single point]",
COc1nc(SCC(=O)Nc2ccccc2Cl)nc(N(C)C)n1,"inconclusive [activator, single point]",
Cn1c(=O)n(C/C=C/c2ccccc2)c(=O)c2c1nc1n2CCCN1Cc1ccccc1,"inconclusive [activator, partial curve]",
O=C(COc1ncnc2ccccc12)Nc1cc(S(=O)(=O)N2CCOCC2)ccc1Cl,,inactive: -28%
Cc1cc(Nc2cccc(Cl)c2)nc2ccc(NC(=O)Cc3cccc(C(F)(F)F)c3)cc12,active: 15.8 µM,
CCN(CC)c1nc(N)c2c(N)n(-c3ccccc3C)c(=S)c(C#N)c2c1C#N,,inactive: 12.7%
CCCc1cc(C(N)=O)c(NC(=O)c2cc(C)on2)s1,"inconclusive [activator, partial curve]",
O=C(CSCC(=O)N1CCCCC1)Nc1nc(-c2ccc(Cl)s2)cs1,active: 20 µM,
COc1ccc(C(=O)/C=C/c2ccc(OC)c(O)c2)c(F)c1,active: 22.4 µM,
O=C(Cn1ncc2c3ccccc3n(Cc3cccc(Cl)c3)c2c1=O)NC1CCCCCC1,,inactive: 0% [at 9.22 µM]
O=Cc1cn(-c2ccc(F)cc2)c2ccccc12,"inconclusive [activator, partial curve, poor fit]",
S=C(NCc1ccc(Cl)c(Cl)c1)NCc1ccco1,"inconclusive [activator, single point]",
CCN1CCSc2ccc(C(=O)NCc3ccc(OC)cc3)cc21,"inconclusive [activator, partial curve]",
C[C@@H]1CCCCO[C@H](CN(C)Cc2ccc(C(=O)O)cc2)[C@H](C)CN([C@@H](C)CO)C(=O)c2cc(NC(=O)Nc3ccc(C(F)(F)F)cc3)ccc2O1,"inconclusive [activator, full curve, poor fit]",
Nc1nc(-c2ccc(NC(=O)c3ccco3)cc2)cs1,,inactive: -30.6%
Cc1cccc(N2C(=O)C(O)=C(C(=O)c3cccs3)C2c2ccc(C(C)C)cc2)n1 (stereo not drawn),active: 28.2 µM,
Cc1c(C(=O)N2CCN(c3cccc(Cl)c3)CC2)cccc1[N+](=O)[O-],active: 22.4 µM,
